# Data reported in PubChem BioAssay (NCATS).
# Where “and” joins values, the source holds several entries; their conditions need not be identical. Equal values may be shown once. The inconclusive results got no clear call from the source; some entries with a clear call stand among them for comparison. Where the call is inconclusive, the potency comes from a doubtful curve fit. Calls of active or inactive are those of the source. The call rests on the fitted dose curve; in most records, active means well fitted curve in the direction sought with a large enough effect; inconclusive means small, poorly fitted or top-dose-only effect, or another doubt; inactive means no such curve, though single readings can be large; an effect the other way counts as inactive or inconclusive.
# Columns and labels:
# [1] = qHTS of pediatric cancer cell lines to identify multiple opportunities for drug repurposing: Primary screen for SK-N-SH cells (AID 1347098); conditions: SK-N-SH viability, CellTiter-Glo luminescence, 48 h; activity change, negative = cytotoxic: at 57 µM (top of the series); further: nearly all actives have a fitted effect of over 65% in size;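 on activity change, negative = cytotoxic: DMSO served as neutral control and bortezomib at 2.3 µM as positive control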
# How it was run: (§1)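 Cells (500-1,000/well) rested 5 h, then received compounds for 48 h; metabolically active cells were measured by CellTiter-Glo luminescence. Final concentrations spanned up to 46 µM (MIPE, 11-point) or 0.59 nM-46 µM (NPC, 8-point) in primary screens, 11-point in follow-ups.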
# [2] = qHTS of pediatric cancer cell lines to identify multiple opportunities for drug repurposing: Primary screen for LAN-5 cells (AID 1347100); conditions: LAN-5 neuroblastoma viability, CellTiter-Glo luminescence, 48 h; activity change, negative = cytotoxic: at 46 µM (top of the series)
# How it was run: (§2)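 Viability after 48 h compound treatment at 37C, 500-1,000 cells/well, read as ATP luminescence with CellTiter-Glo. Primary screens used 11-point (MIPE, 0.78 nM-46 µM) or 8-point (NPC, 0.59 nM-46 µM) final concentrations; follow-up screens used 11-point dilutions.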
# [3] = qHTS of pediatric cancer cell lines to identify multiple opportunities for drug repurposing: Primary screen for BT-12 cells (AID 1347101); further: nearly all actives have a fitted effect of over 25% in size
# How it was run: as §1
# [4] = qHTS of pediatric cancer cell lines to identify multiple opportunities for drug repurposing: Primary screen for NB1643 cells (AID 1347099); further: nearly all actives have a fitted effect of over 50% in size
# How it was run: (§3)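 500-1,000 cells/well; 5 h pre-incubation 37 °C/5% CO2; compound pinned; 48 h; CellTiter-Glo, 15 min RT; luminescence. MIPE 11-pt from 0.78 nM, NPC 8-pt from 0.59 nM final. Bortezomib 2.3 µM final as positive control.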
# [5] = qHTS of pediatric cancer cell lines to identify multiple opportunities for drug repurposing: Primary screen for RD cells (AID 1347104); further: nearly all actives have a fitted effect of over 55% in size
# How it was run: as §3
# [6] = qHTS of pediatric cancer cell lines to identify multiple opportunities for drug repurposing: Primary screen for Rh18 cells (AID 1347102); further: nearly all actives have a fitted effect of over 65% in size
# How it was run: as §2
# [7] = qHTS of pediatric cancer cell lines to identify multiple opportunities for drug repurposing: Primary screen for OHS-50 cells (AID 1347103); further: nearly all actives have a fitted effect of over 40% in size
# How it was run: as §1
# [8] = qHTS of pediatric cancer cell lines to identify multiple opportunities for drug repurposing: Primary screen for Saos-2 cells (AID 1347097); conditions: Saos-2 viability, CellTiter-Glo ATP luminescence, 48 h; activity change, negative = cytotoxic: at 46 µM (top of the series); further: nearly all actives have a fitted effect of over 40% in size
# How it was run: as §3
# Potency means the concentration at half of the fitted maximal effect; tags describe the fitted curve by direction and shape.
compound,measurement,setting,value
N#Cc1c(N(CC(=O)O)CC(=O)O)sc(C(=O)O)c1CC(=O)O,Potency,[1],inactive
same,Potency,[2],inactive
same,Potency,[3],inactive
CC(C)(Cc1ccc2ccccc2c1)NC[C@@H](O)COc1cccc(Cl)c1C#N,Potency,[1],active: 24.1 µM
same,Potency,[4],"inconclusive: 5.26 µM [cytotoxic, partial curve, poor fit]"
same,Potency,[2],active: 18.7 µM
same,Potency,[3],"inconclusive: 19.3 µM [cytotoxic, partial curve]"
CC1(C)C(=O)N(CCN2CCC(C(=O)c3ccc(F)cc3)CC2)c2ccccc21,Potency,[1],"inconclusive: 42.9 µM [cytotoxic, single point]"
same,Potency,[4],"inconclusive: 23.5 µM [cytotoxic, single point]"
same,Potency,[3],"inconclusive: 24.3 µM [cytotoxic, partial curve]"
O=C1CCCC(=O)C1C(=O)c1ccc(C(F)(F)F)cc1[N+](=O)[O-],Potency,[1],"inconclusive: 27.1 µM [cytotoxic, single point]"
Cn1cnc2c1c(=O)[nH]c(=O)n2C,Potency,[1],"inconclusive: 38.3 µM [cytotoxic, single point]"
same,Potency,[4],"inconclusive: 26.4 µM [cytotoxic, single point]"
O=C(O)C1=CC(O)C(O)[C@H](O)C1 (stereo partly specified),Potency,[1],inactive
CCCCCCCCCCCCCC(=O)N[C@H](CO)[C@H](O)c1ccc([N+](=O)[O-])cc1,Potency,[1],"inconclusive: 42.9 µM [cytotoxic, partial curve, poor fit]"
same,Potency,[4],"inconclusive: 26.4 µM [cytotoxic, single point]"
same,Potency,[2],"inconclusive: 29.6 µM [cytotoxic, single point]"
same,Potency,[5],"inconclusive: 37.2 µM [cytotoxic, single point]"
CCCNCC(O)COc1ccccc1C(=O)CCc1ccccc1 (stereo unspecified),Potency,[1],"inconclusive: 24.1 µM [cytotoxic, partial curve, poor fit]"
same,Potency,[2],"inconclusive: 23.5 µM [cytotoxic, partial curve, poor fit] and inconclusive: 11.9 µM [cytotoxic, partial curve, poor fit]"
same,Potency,[3],"inconclusive: 43.2 µM [cytotoxic, single point] and inconclusive: 17.4 µM [cytotoxic, partial curve]"
same,Potency,[6],"inconclusive: 33.2 µM [cytotoxic, single point] and inconclusive: 13.3 µM [cytotoxic, partial curve, poor fit]"
same,Potency,[7],"inconclusive: 27.3 µM [cytotoxic, single point] and inconclusive: 21.9 µM [cytotoxic, single point]"
same,Potency,[5],"active: 33.2 µM and inconclusive: 33.5 µM [cytotoxic, single point]"
CCN(CCO)CCCC(C)Nc1ccnc2cc(Cl)ccc12 (stereo unspecified),Potency,[1],"inconclusive: 2.41 µM [cytotoxic, full curve]"
same,Potency,[4],"inconclusive: 2.96 µM [cytotoxic, full curve]"
same,Potency,[3],inactive
same,Potency,[7],"inconclusive: 38.5 µM [cytotoxic, single point]"
same,Potency,[5],"inconclusive: 23.5 µM [cytotoxic, partial curve, poor fit]"
CC(=O)OC1C(C)OC(Oc2c(-c3ccc(O)cc3)oc3cc(O)cc(O)c3c2=O)C(O)C1OC(C)=O (stereo unspecified),Potency,[1],inactive
same,Potency,[4],"inconclusive: 18.7 µM [cytotoxic, single point]"
same,Potency,[2],"inconclusive: 33.2 µM [cytotoxic, single point]"
same,Potency,[3],"inconclusive: 24.3 µM [cytotoxic, single point]"
same,Potency,[7],"inconclusive: 6.11 µM [cytotoxic, partial curve, poor fit]"
same,Potency,[5],"inconclusive: 29.6 µM [cytotoxic, single point]"
CN1C2CCC1CC(OC(=O)C(CO)c1ccccc1)C2 (stereo unspecified),Potency,[1],"inconclusive: 27.1 µM [cytotoxic, single point]"
CCOC(=O)c1c(C)n(C)c2ccc(O)cc12,Potency,[1],"inconclusive: 42.9 µM [cytotoxic, single point]"
same,Potency,[3],inactive
COc1cc2ncnc(-n3nc(-c4ccccn4)nc3N)c2cc1OC,Potency,[1],"inconclusive: 15.2 µM [cytotoxic, partial curve]"
same,Potency,[2],"inconclusive: 13.2 µM [cytotoxic, single point]"
same,Potency,[3],"inconclusive: 7.69 µM [cytotoxic, full curve]"
C=CCc1ccc(O)c(-c2ccc(O)c(CC=C)c2)c1,Potency,[1],"inconclusive: 6.07 µM [cytotoxic, partial curve]"
same,Potency,[4],inactive
same,Potency,[2],"inconclusive: 26.4 µM [cytotoxic, single point]"
same,Potency,[3],"inconclusive: 34.3 µM [cytotoxic, single point]"
same,Potency,[5],"inconclusive: 33.2 µM [cytotoxic, single point]"
COC[C@@H](c1ccc(C(F)(F)F)cc1)N1CCN(C2(C)CCN(C(=O)c3c(C)ncnc3C)CC2)C[C@H]1C,Potency,[1],active: 5.41 µM
same,Potency,[2],"inconclusive: 37.2 µM [cytotoxic, partial curve, poor fit]"
same,Potency,[7],"inconclusive: 27.6 µM [cytotoxic, partial curve, poor fit]"
same,Potency,[5],inactive
C[C@H](NC(=O)Cc1cc(F)cc(F)c1)C(=O)N[C@H](C(=O)OC(C)(C)C)c1ccccc1,Potency,[1],"inconclusive: 8.57 µM [cytotoxic, partial curve, poor fit]"
same,Potency,[4],"inconclusive: 26.4 µM [cytotoxic, partial curve, poor fit]"
same,Potency,[3],inactive
same,Potency,[6],inactive
same,Potency,[7],"inconclusive: 3.43 µM [cytotoxic, full curve]"
Cc1ncc([N+](=O)[O-])n1CC(C)O (stereo unspecified),Potency,[1],"inconclusive: 21.5 µM [cytotoxic, partial curve]"
same,Potency,[4],inactive
same,Potency,[7],inactive
Cc1ccc2c(c1)C(=O)[C@]1(O)CCN(c3ccccc3)C1=N2,Potency,[1],"inconclusive: 6.81 µM [cytotoxic, partial curve, poor fit]"
same,Potency,[4],"inconclusive: 5.9 µM [cytotoxic, partial curve]"
same,Potency,[2],"inconclusive: 18.7 µM [cytotoxic, partial curve]"
same,Potency,[3],"inconclusive: 34.3 µM [cytotoxic, partial curve, poor fit]"
same,Potency,[6],"inconclusive: 20.9 µM [cytotoxic, single point]"
same,Potency,[7],"inconclusive: 24.3 µM [cytotoxic, single point]"
same,Potency,[5],"inconclusive: 18.7 µM [cytotoxic, partial curve, poor fit]"
Nc1ncnc2ccccc12,Potency,[1],"inconclusive: 27.1 µM [cytotoxic, single point]"
same,Potency,[4],"inconclusive: 18.7 µM [cytotoxic, partial curve]"
same,Potency,[2],inactive
CO[C@H]1C=CO[C@@]2(C)Oc3c(C)c(O)c4c(O)c(c(C=NN5CCN(C)CC5)c(O)c4c3C2=O)NC(=O)C(C)=CC=C[C@H](C)[C@H](O)[C@@H](C)[C@@H](O)[C@@H](C)[C@H](OC(C)=O)[C@H]1C,Potency,[8],"inconclusive: 0.0267 µM [cytotoxic, full curve]"
same,Potency,[5],"inconclusive: 3.37 µM [cytotoxic, partial curve, poor fit]"
N[C@@H](Cc1cc(I)c(Oc2cc(I)c(O)c(I)c2)c(I)c1)C(=O)O,Potency,[1],inactive
Cc1cnc(C(=O)O)c[n+]1[O-],Potency,[1],"inconclusive: 30.4 µM [cytotoxic, single point]"
same,Potency,[4],inactive
same,Potency,[2],inactive
same,Potency,[7],inactive
same,Potency,[5],inactive
CS(=O)(=O)c1ccc(C2=C(c3ccccc3)C(=O)OC2)cc1,Potency,[1],"inconclusive: 34.1 µM [cytotoxic, single point]"
CCn1cc(C(=O)O)c(=O)c2ccc(C)nc21,Potency,[1],"inconclusive: 24.1 µM [cytotoxic, partial curve]"
COc1ccc(-n2c(C)c([N+](=O)[O-])c3ccc(O)cc32)cc1,Potency,[1],active: 19.2 µM
same,Potency,[4],active: 5.9 µM
same,Potency,[3],"inconclusive: 15.3 µM [cytotoxic, partial curve]"
same,Potency,[5],"inconclusive: 37.2 µM [cytotoxic, single point]"
CN[C@@H](C)[C@H]1[C@H](O)C[C@@]2(C)[C@@H]3CC[C@H]4C(C)(C)[C@@H](NC)CC[C@@]45C[C@@]35CC[C@]12C,Potency,[1],"inconclusive: 27.1 µM [cytotoxic, single point]"
same,Potency,[4],inactive
same,Potency,[5],"inconclusive: 37.2 µM [cytotoxic, single point]"
Cc1ncc([N+](=O)[O-])n1CCO,Potency,[1],"inconclusive: 27.1 µM [cytotoxic, single point]"
NCCc1cnc[nH]1,Potency,[1],inactive
same,Potency,[4],"inconclusive: 20.9 µM [cytotoxic, partial curve]"
same,Potency,[3],inactive
CCC(=O)OCC(=O)[C@@]1(OC(=O)CC)[C@@H](C)C[C@@H]2[C@H]3CCC4=CC(=O)C=C[C@]4(C)[C@@]3(F)[C@@H](O)C[C@@]21C,Potency,[1],"inconclusive: 38.3 µM [cytotoxic, single point]"
same,Potency,[4],active: 2.35 µM
same,Potency,[2],"inconclusive: 4.18 µM [cytotoxic, full curve]"
same,Potency,[3],active: 6.11 µM
CN(C)CCc1c[nH]c2ccc(Cn3cncn3)cc12,Potency,[1],inactive
same,Potency,[3],"inconclusive: 24.3 µM [cytotoxic, partial curve]"
CC1COC2(CCN(c3nc(=O)c4cc(C(F)(F)F)cc([N+](=O)[O-])c4s3)CC2)O1 (stereo unspecified),Potency,[1],inactive
same,Potency,[4],inactive
NC1=N[C@@]2(c3cc(NC(=O)c4ccc(F)cn4)ccc3F)COC[C@@H]2CS1,Potency,[1],"inconclusive: 7.64 µM [cytotoxic, full curve]"
same,Potency,[2],active: 0.132 µM
same,Potency,[3],active: 0.153 µM
CC[C@H]1OC(=O)[C@H](C)[C@@H](O[C@H]2C[C@@](C)(OC)[C@@H](O)[C@H](C)O2)[C@H](C)[C@@H](O[C@@H]2O[C@H](C)C[C@H](N(C)C)[C@@H]2O)[C@](C)(OC)C[C@@H](C)C(=O)[C@H](C)[C@@H](O)[C@]1(C)O,Potency,[1],"inconclusive: 38.3 µM [cytotoxic, single point]"
